In PubChem BioAssay AID504339 (National Center for Advancing Translational Sciences (NCATS), 2011):
Values joined by “and” are separate entries in the source; they are usually repeats but may differ in a detail not shown here. Equal values may be shown once. The campaign covered roughly 390,000 compounds. About 17,000 (4.4%) were called active. The shares of active, inactive and inconclusive entries below differ from those in the screen. Calls come from the whole dose curve; as a rule, active = well fitted inhibition curve with a large enough effect; inconclusive = small, poorly fitted or top-dose-only effect; inactive = no such curve, though single readings can be large or run the other way. A potency beside an inconclusive call is a rough fit, not a confirmed value.

Biological target: Lysine-specific demethylase 4A (Homo sapiens) (UniProt O75164)
Assay: qHTS Assay for Inhibitors of JMJD2A-Tudor Domain; note: nearly all actives have a fitted effect of over 50% in size
Settings: AlphaScreen JMJD2A-Tudor / H3K4me3 peptide binding; activity change, negative = inhibition: at 114 µM (top of the series)
% is set by controls: 0 for no effect and ±100 for the full control effect; potency is the fitted concentration of half-maximal effect; tags give direction and shape of the fitted curve.

Sequence of UniProt O75164 (O75164 whole entry, looked up, the tested form may be a part): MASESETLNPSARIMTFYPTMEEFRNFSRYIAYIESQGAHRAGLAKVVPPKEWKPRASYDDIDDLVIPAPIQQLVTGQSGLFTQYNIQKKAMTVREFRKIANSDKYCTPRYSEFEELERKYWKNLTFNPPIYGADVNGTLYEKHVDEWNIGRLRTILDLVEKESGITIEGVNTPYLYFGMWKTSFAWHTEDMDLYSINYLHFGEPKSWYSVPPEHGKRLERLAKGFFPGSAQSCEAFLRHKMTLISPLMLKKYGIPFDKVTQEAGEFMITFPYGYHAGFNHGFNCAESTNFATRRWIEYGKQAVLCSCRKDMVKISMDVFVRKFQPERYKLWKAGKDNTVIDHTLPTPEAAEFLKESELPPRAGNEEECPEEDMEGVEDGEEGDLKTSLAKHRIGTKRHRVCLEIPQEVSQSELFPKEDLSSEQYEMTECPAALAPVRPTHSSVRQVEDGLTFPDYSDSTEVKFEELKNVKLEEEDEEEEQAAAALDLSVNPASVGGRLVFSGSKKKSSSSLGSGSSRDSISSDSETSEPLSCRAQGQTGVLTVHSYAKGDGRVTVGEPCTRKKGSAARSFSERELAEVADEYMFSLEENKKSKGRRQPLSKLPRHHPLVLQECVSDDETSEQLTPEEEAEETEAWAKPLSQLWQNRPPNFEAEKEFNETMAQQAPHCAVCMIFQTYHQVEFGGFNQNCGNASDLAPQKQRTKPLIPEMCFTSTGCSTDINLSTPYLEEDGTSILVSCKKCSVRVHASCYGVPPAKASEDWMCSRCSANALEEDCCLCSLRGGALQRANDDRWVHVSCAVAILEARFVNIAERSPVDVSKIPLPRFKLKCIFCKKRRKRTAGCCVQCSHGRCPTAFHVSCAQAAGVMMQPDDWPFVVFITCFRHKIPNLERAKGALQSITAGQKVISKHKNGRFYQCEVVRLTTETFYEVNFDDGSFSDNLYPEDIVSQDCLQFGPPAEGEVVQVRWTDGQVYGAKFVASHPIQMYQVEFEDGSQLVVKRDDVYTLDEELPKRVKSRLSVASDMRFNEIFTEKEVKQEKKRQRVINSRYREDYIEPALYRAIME

Potency, active:
COc1ccc(CN(C)C(=O)CNC(=O)c2sc3ccccc3c2Cl)c(OC)c1OC 89.1 µM
CCOC(=O)c1[nH]cnc1C(=O)NC1CCCCC1 3.98 µM
CC1=C(C#N)c2nc(N)c(C#N)c(C)c2/C1=C\c1ccc(OCC(=O)O)c(Cl)c1 20 µM
C/C=C\C=C/C(=O)Nc1cccc(C2=NOC3(C2)C[C@@H](C(N)=O)N(C(=O)/C=C/C=C\C)C3)c1 (stereo partly drawn) 50.1 µM
CC(=O)C1=C(O)C(=O)N(CCc2c[nH]c3ccccc23)C1c1cccc(O)c1 (stereo not drawn) 79.4 µM
O=C(O)CC(NCc1ccco1)C(=O)OCCc1ccccc1 (stereo not drawn) 6.31 µM

Potency, inconclusive:
CC(=O)NC(c1ccc([N+](=O)[O-])cc1)c1c(O)ccc2ccccc12 (stereo not drawn) 89.1 µM [inhibitor, partial curve]
COc1ccc(Cc2nc3ccc(C(=O)NCc4ncc(C)[nH]4)cc3o2)cc1OC 2.82 µM [inhibitor, partial curve, poor fit]
N#Cc1ccccc1S(=O)(=O)N1CCN(c2nc(-c3cccnc3)nc3ccccc23)CC1 79.4 µM [inhibitor, partial curve]
Cn1c(C(=O)NCCCN2CCc3ccccc3C2)cc2c(=O)n(C)c3ccccc3c21 50.1 µM [inhibitor, partial curve]
COc1ccc(NC(=O)N2CCN(c3cccc(C(F)(F)F)c3)CC2)cc1OC 79.4 µM [inhibitor, single point]
O=C(Nc1ccccc1)Nc1ccc(O)c2ccccc12 44.7 µM [inhibitor, partial curve]
COc1ccc(N2CCN(CC(O)c3c[nH]c4ccc(OC)cc34)CC2C)cc1 (stereo not drawn) 63.1 µM [inhibitor, partial curve, poor fit]
Cn1c(=O)c2c(-c3ccccc3Br)n(Cc3ccccc3)cc2n(C)c1=O 56.2 µM [inhibitor, partial curve]
S=C(c1ccc(-c2cc(Cl)ccc2Cl)o1)N1CCCCC1 25.1 µM [inhibitor, partial curve]
COCCN1CSC(=S)N(Cc2ccco2)C1 44.7 µM [inhibitor, partial curve]
CCc1nn(-c2ccccc2)c(=S)c2ccccc12 44.7 µM [inhibitor, partial curve]
COc1ccc(Cn2c(C)nc3c(c2=O)c2nc4ccccc4nc2n3Cc2ccco2)cc1 3.16 µM [inhibitor, single point]
Cc1cc(O)c(C(=O)/C=C/c2ccccc2Br)c(=O)o1 63.1 µM [inhibitor, partial curve, poor fit]
COc1ccc(C2c3c(ncn(CCN4CCOCC4)c3=N)Oc3ccc4ccccc4c32)cc1 (stereo not drawn) 56.2 µM [inhibitor, partial curve] and 50.1 µM [inhibitor, partial curve, poor fit]
COC(=O)c1cc(OC)c(OC)cc1NC(=S)N1CCN(c2ccccc2)CC1 63.1 µM [inhibitor, partial curve, poor fit]
O=C(Nc1ccon1)c1ccc(N2CCCCC2)c([N+](=O)[O-])c1 25.1 µM [inhibitor, partial curve]
CCn1cc(/C=C(\NC(=O)c2ccccc2F)C(=O)N2CCOCC2)c2ccccc21 56.2 µM [inhibitor, partial curve, poor fit]
Cc1ccc(Cn2ccnc2SCC(=O)Nc2ccc3c(c2)OCCO3)cc1 50.1 µM [inhibitor, partial curve]
Cc1ccccc1C(=O)Nc1nc(=S)ss1 56.2 µM [inhibitor, partial curve]
COC(=O)N/N=C\c1c(C)[nH]n(-c2ccccc2)c1=O 89.1 µM [inhibitor, single point]
COc1ccc(C(=O)N(Cc2ccccc2)Cc2ccc(OC)c(COc3ccc(NC(C)=O)cc3)c2)cc1 35.5 µM [inhibitor, partial curve]
COc1ccc(CCNC(=O)c2ccc(-c3ccc([N+](=O)[O-])cc3Cl)o2)cc1OC 63.1 µM [inhibitor, single point]
COc1ccccc1N1CCN(CC(O)COCCOc2ccc(Br)cc2)CC1 (stereo not drawn) 28.2 µM [inhibitor, single point]
COc1cc([C@@H]2c3cc4c(cc3[C@@H](O)[C@H]3COC(=O)[C@H]23)OCO4)cc(OC)c1O[Si](C)(C)C(C)(C)C 63.1 µM [inhibitor, partial curve, poor fit]
Fc1ccc(C2=NNC(=NCc3ccccc3)SC2)cc1F 56.2 µM [inhibitor, partial curve]
Cc1ccc(Nc2ccc(S(=O)(=O)N3CCOCC3)cc2[N+](=O)[O-])cc1C 12.6 µM [inhibitor, partial curve]

Activity change, negative = inhibition, inactive:
Cc1ccc(S(=O)(=O)NCCC2(C(C)C)CCOC(C)(C)C2)cc1 (stereo not drawn) -2.88%
COc1ccc(CCNC(=O)CCOc2ccc(C(C)(C)C)cc2)cc1OC -19.1%
COc1ccc(-n2c(SCC(=O)NC3CCCCC3)nc3c([nH]c4ccccc43)c2=O)cc1 1.94%
Cc1c(NC(=O)Nc2ccc(Cl)c(C(F)(F)F)c2)c(=O)n(-c2ccccc2)n1C 4.79%
CC(C)(C)c1cc(NC(=O)CSc2nncs2)n(-c2ccccc2)n1 -3.9% [at 57.1 µM]
Cc1cc2c(c(=O)n1Cc1ccccn1)C(c1ccc3c(c1)OCO3)C(C#N)=C(N)O2 (stereo not drawn) -18%
O=C(NCCSCc1c(F)cccc1Cl)c1ccco1 -15.5%
Cc1ccc(NC(=O)Cn2cc(C(=O)c3ccco3)c3ccccc32)c(C)c1 -17.1%
CC(C)Oc1ccc(C2NC(=O)c3ccccc3O2)cc1 (stereo not drawn) -8.28%
O=C(Nc1ccc(Cl)c(Cl)c1)N(CCCN1CCOCC1)Cc1cccnc1 -10.3%
CCC(CC)C(=O)NCc1nc2cccnc2n1Cc1ccc(F)cc1 -8.39%
